# Results: the supplement of paper PMC11417369
# ± gives the standard deviation of the averaged measurements. This is one part of the list.
# Test system: PfAP2-EXP AP2 domain (GST-tagged)
# Experiment: gcPBM binding intensity (ln(normalized median fluorescence intensity)); higher = stronger DNA binding
# Procedure, shortened: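 Using an Agilent 4 × 180k array, primer-extended double-stranded 36-bp intergenic genomic probes and negative controls were exposed for 1 h to GST-fused P. falciparum DNA-binding domains expressed in E. coli. Binding was carried out in 1× PBS with 1% milk, 0.2 mg/ml BSA, 0.5% salmon testes DNA and 0.03% Triton X-100, and protein was detected with Alexa488 anti-GST antibody and a 488 nm scan. Binding intensity is the highest Masliner-normalised natural-log median intensity across replicate spots of either probe orientation.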
row,Sequence,gcPBM binding intensity (ln)
1,CATAATACATATAACACACACAATTATACATAAAAT [CACACA_site3233],8.92 ± 0.26
2,TTATTAAAAAAAATATGTACTCACAATATAATATAT [XGTACX_site3738],8.3 ± 0.3
3,GAAATTTTTAAAAAGGTGCTTTTAACAAAAATTATT [GTGCAC_site9687],8.54 ± 0.071
4,TTTTTTTTTTCTTGTTGTACTTTTAATAATTCATAT [XGTACX_site4704],8.79 ± 0.42
5,ACCATCCTTAATACTTATTTTTTCACAATTAAGTAA [GTGCAC_negctrl_site269],8.63 ± 0.33
6,TATATATATATAACATGTACATAAAATACATTTATA [XGTACX_site7370],9.7 ± 0.2
7,TTAGCAACTATTACTACACACATTTGTATATAATTT [CACACA_site1591],8.5 ± 0.49
8,AAAAAAAAAAAAAGATGTACATATATTTTTATTATA [XGTACX_site654],8.23 ± 0.4
9,AACCATTCTTCTAATTGTACATTGAAAAATCATGAT [XGTACX_site3854],8.62 ± 0.44
10,AAGGATATAAAAAAACGTACGTACGATAATATAATT [XGTACX_site1292],8.88 ± 0.4
11,AGTATTTTAATTTCAGTGCATTTTATTCTATAATTA,8.71 ± 0.3
12,AAAAAAAAAAAAAATGCATGTGCGTAAATAATAATA [TGCATGCA_site793],8.93 ± 0.4
13,TTTAGGAAAGGCGGCACACATTTATATATTTATTTA [CACACA_site5931],8.28 ± 0.4
14,ATATATATCTATATTTGTACATATTACATTCAAGTT [XGTACX_site1749],8.66 ± 0.37
15,AAGTTTTCTTACAGATGTACTTTTTAAAAATAAACT [XGTACX_site6632],8.8 ± 0.59
16,TATAACTATTTATAATGTACTCATGTATAATTATAT [XGTACX_site7913],8.33 ± 0.44
17,TGCTATAATTTATATACACACAAATATATACTCATA [CACACA_site6111],8.31 ± 0.28
18,TTAATTTATTTATGCACACATATATAATTACACATA [CACACA_site4544],8.525 ± 0.078
19,TTTATATATTATATAAATATTATTATACTTTAAATA [TGCATGCA_negctrl_site236],8.01 ± 0.39

row,Sequence,gcPBM binding intensity (ln)
1,TTTTATCGATATATCTGTACATATTACTTATAATAA [XGTACX_site57],8.81 ± 0.47
2,ATGCTTTTGTCATGTGCACACACGTATATATTATAT [CACACA_site4163],9.12 ± 0.23
3,ACATGTATTTATAAGAGTACATATGTGTGCATGTTT [XGTACX_site7946],8.715 ± 0.035
4,TTTATAATATACATAACACACAATTATTATTTCTTA [CACACA_site3624],8.19 ± 0.4
5,TTATAACAAATATAGAGTACTAAAATTTTACGTTAT [XGTACX_site1410],8.43 ± 0.47
6,TTTTTTTCCTTATCTATATATAATCAAATTTTCTAC [CACACA_negctrl_site867],8.54 ± 0.43
7,AACTTTTAGAAGAACACACACATATAGATTATGACC [CACACA_site6256],8.8 ± 0.26
8,TCGAACATTAACATAACACACATATATATATATATA [CACACA_site2900],10.2 ± 0.32
9,AAGGTTATTTATATATGTACTTAATATATATATATG [XGTACX_site886],8.36 ± 0.3
10,ATGTACTATGATAATGCATGCAATAATACATTTTTA [TGCATGCA_site318],9.77 ± 0.18
11,TAATATATATATAATACACACTATTTTAATCACATA [CACACA_site4849],8.24 ± 0.42
12,TTATTATGTATATATGCACACAATACCCAAAACAAC [CACACA_site80],8.89 ± 0.21
13,GAAGATTTATCTTGCACACGCAAAAAAAAAAAAAAA [CACACA_site154],8.4 ± 0.27
14,TTTATTGCTCTATATGCACACCTTAATTCTTCATTT [CACACA_site8682],8.99 ± 0.33
15,AAAAATAATCATAGTAGTACAAAAAAAAAAAAAAAA [XGTACX_site3736],8.27 ± 0.61
16,TACGTAAATTCTAATACACACTATAGGATATTCTGC [CACACA_site7248],8.37 ± 0.44
17,GAAAATATTTCTATCTGTACTTATTTATATATATAT [XGTACX_site7317],9.54 ± 0.071
18,TGCATGTAATTTTTGTGTCCACATAAAATATTTAAT [XGTACX_site5652],9.175 ± 0.007
19,TTTTTATGAAAATAAACACACGATTTATTATATATA [CACACA_site1311],8.27 ± 0.34

row,Sequence,gcPBM binding intensity (ln)
1,TTCTATATATTATATGCATGTAAAACATATTAAAAT [TGCATGCA_site662],8.78 ± 0.42
2,TTTTTCAATTGTAGTGGTACAGATATAATTATCTCT [XGTACX_site5500],8.67 ± 0.57
3,TAATTATTACACGGTATTATATATAATATGTTAAAA [GTGCAC_negctrl_site134],8.41 ± 0.35
4,TTTTTTGTTAAACCGGTGCATATAAATATATATATA [GTGCAC_site9989],9.72 ± 0.071
5,ATCATTTTTTATGCGTGTACATAAATTTATTAGGTT [XGTACX_site2786],8.84 ± 0.36
6,CACAAAAAAGTTCATACACACAACATATTTATATAT [CACACA_site2887],8.39 ± 0.39
7,ATATCTATATTTTAAAGTACGTAGTAAAAAGAAAAA [XGTACX_site4323],8.69 ± 0.4
8,TTTTTTTTTTTTCTGTGTACATATATAATATATATA [XGTACX_site1592],8.78 ± 0.33
9,TTTTATGAAAAGATGAGTACACAATACTTTTTAATT [XGTACX_site8253],8.19 ± 0.35
10,TTGTCACTAATAGATGCATGCAATCATTCCATTTTT [TGCATGCA_site938],9.64 ± 0.37
11,TTATGTCGTAAATACACACATACATATACATACACA [CACACA_site1374],8.49 ± 0.39
12,AATAAATTGAAACACACACACACATATATATATATA [CACACA_site848],10.2 ± 0.32
13,TTGTAATGATATATTTGTACTTAATATAATTGTATA [XGTACX_site2748],8.29 ± 0.33
14,GTTACATACCTATACACACACATATATAAATAAATA [CACACA_site6549],8.65 ± 0.4
15,TAACAAAACATAGATTGTACATATTATAAATGTATA [XGTACX_site1543],8.46 ± 0.38
16,CAAAATATACACACGTGTACACAAATATTTACAAAA [XGTACX_site2257],8.74 ± 0.4
17,TTTCCCATAGGAAAAACACACATATATTATATATAA [CACACA_site1981],8.3 ± 0.48
18,CAATATTATATTACTTGTACACATATGTAGTTTCGA [XGTACX_site8945],8.64 ± 0.33
19,TATTCTTATCTTACCACACACAATGTACGAAAAGAT [CACACA_site6296],8.61 ± 0.3
